± gives the standard deviation of the averaged measurements. The full ranking holds about 4,000 sequences; the median of “arbitrary fluorescence units” is about 830, and the highest 2% start at about 6,500. Most of the strongest results are missing from this list.
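Also: Full-length recombinant human RUNX1 bound to double-stranded DNA microarray spots, detected with an Alexa488-labelled secondary antibody after the anti-RUNX1 primary, read as scanned spot fluorescence.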

Sequence of UniProt Q01196 (Q01196 whole entry): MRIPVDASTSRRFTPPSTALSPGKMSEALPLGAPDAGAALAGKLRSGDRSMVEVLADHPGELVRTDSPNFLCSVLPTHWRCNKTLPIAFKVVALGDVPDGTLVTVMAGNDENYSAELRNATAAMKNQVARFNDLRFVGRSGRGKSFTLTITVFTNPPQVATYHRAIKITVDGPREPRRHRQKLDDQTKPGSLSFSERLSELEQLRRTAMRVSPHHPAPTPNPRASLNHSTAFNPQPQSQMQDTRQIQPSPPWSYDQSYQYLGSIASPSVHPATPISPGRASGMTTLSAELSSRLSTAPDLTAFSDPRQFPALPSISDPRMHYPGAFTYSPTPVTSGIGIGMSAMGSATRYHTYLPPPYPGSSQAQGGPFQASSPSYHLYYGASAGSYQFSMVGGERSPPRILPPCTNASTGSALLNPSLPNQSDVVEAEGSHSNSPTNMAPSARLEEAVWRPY

The target of the experiment is RUNX1 (UniProt Q01196). The experiment can be described thus: RUNX1 binding intensity (PBM fluorescence), RUNX1 alone (arbitrary fluorescence units); higher = stronger binding. The conditions noted are these: RUNX1 concentration 2 nM; ETS1 concentration 0 nM. Here is the method:
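gcPBM on 36-bp genomic-derived probes (partner site mutated) containing one RUNX1 site and no ETS1 site. Recombinant human RUNX1 (2 nM) was incubated alone or with ETS1 (25 nM) and detected by anti-RUNX1 antibody fluorescence. Values are medians over 4 replicate spots (not normalised). The probes sit in constant array flanks that are not printed.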
In turn, ACTCAGCCCACAAAGCTAACAGCAGCAAGTGCTTGG had an RUNX1 binding intensity of 828. TCTCTTTACCGCGAGGAAAGCTGGGCAATGTAGTGC displayed an RUNX1 binding intensity of 953.

Take TCAAAGACTCAGCGGTTACCCCCTTCAGGGCCGCGC: the RUNX1 binding intensity turned out to be 816. Sequence TGTTTGTTGCCGAAGATTAGCCAGCCTGCGGTAGAG showed an RUNX1 binding intensity of 833. Sequence TACCAAAAAGCTACCACAGAACGGAGGAGAACACGA had an RUNX1 binding intensity of 875. The value for TCCCACTGCGACCGAAGCACAGCGGTTAAGATTGCA was 725; that for TCCTCTCCTTGCCGCGAGACCTTGCGCGGTTATCCA was 1010; that for TCGCAGATACCACACCCACCCGAAAGTCCTCCTGGC was 1050. GTTGTCTTCTTTCTGAGTAAACCGCAGTGCAGAGAA had an RUNX1 binding intensity of 4560. Sequence GGGAGGCCCCATCGTGTGTGGCTGTGGCTTTTGCCT showed an RUNX1 binding intensity of 762. In turn, GCAGGACTGCCTGTGTTGTGCTAACCTCAAATTACA had an RUNX1 binding intensity of 808. For the sequence TGAGAAAACAGAAAGCGCCCAGTCACCACAGAAAGC, the RUNX1 binding intensity was determined as 753. The sequence GCCTTGCGGCGAGGCGGGCCGGAGCGACGAAAAGCT had an RUNX1 binding intensity of 884. The value for GGCCAAGGAGGCGGCCCCCTAAAACCGCTCCCGGGA was 665.9 ± 5.3; that for CGGCAGCTGCACCGCAGGGACATCTTCGGCCAGAGC was 870. TCTACACCCTGCAGTTCTCCATTGTGGCCATTAGGT returned an RUNX1 binding intensity of 922. Turning to TTAGAGTCTGTGGGGCTCTTAGCTGGGAATTGATAC, the RUNX1 binding intensity turned out to be 750.

For GGCACACTGCGGTCGCACCATAAGCTTGCTGGATGG, the RUNX1 binding intensity is 1690. For TCTTTGCTGGTGGTTACCTTTACAGGCAATCTCTTA, the RUNX1 binding intensity is 827.

Consider CGTGGCCCGAAAGCTCTCAGCGGCGAGCACCGCGGG, for which the RUNX1 binding intensity worked out at 675. On to CCTGGTCCGGGAGCGCTGTCCCCGCCTCCCGCATAG, for which the RUNX1 binding intensity came out at 912. Turning to GCGGACCACGAGCCTCCTGGGTGCCGTACGCAGATG, the RUNX1 binding intensity is 801. Consider GGGGACCTGAAAGGGAGGGGTGGGCCGCAGGCGCCG, for which the RUNX1 binding intensity amounted to 779. Regarding TGTGACCACAGCTGGGGGCGGGGCAGCAAGTAGAAG, the RUNX1 binding intensity stood at 938. In the case of GCTTCTTACGGCCGGGCCGAGAGGTGGTTACATTCG it was 750; in that of CCGTGGTTGCAAGAAACACCCACCATTCCCGGGTCT, 775. CGGGACCTGATTCCTTGGGAACCACAAGATAAGACC came in with an RUNX1 binding intensity of 794 ± 8.7. Sequence GTCACAGAGGGAGCAAGGCCGAACCGCGGGAGCCTA registered an RUNX1 binding intensity of 770. With CCACACCTAACCACAGGGGAGGTTGGGAATTGAAGT, the RUNX1 binding intensity was determined as 1550. The sequence TTGTGGCTAATGGCTCAGCAGGATTAGGCAGCAACT gave an RUNX1 binding intensity of 713. Take CAAGGTGCTGTGGTCACATAAGCAGCAAGAGCCCCA: the RUNX1 binding intensity stood at 907. GGCCGCCGATTCCCGTCCAGGGCCGCAGTCTGCCCG: the RUNX1 binding intensity came out at 866. Sequence AAATGTAGCCCGGGACCAAGTGTGCGGTGACGACTC had an RUNX1 binding intensity of 697. For the sequence TGACCTCCTCCTCTTCACTAACAGAAACCTCAATTT, the RUNX1 binding intensity is 1370. Turning to GCAGGTTTTGTGGGCCGCTTCCACAGTAAAACATGC, the RUNX1 binding intensity amounted to 783. The value for TCGGGCTGCCGCAGAGCAGCTATTGCCTGTCTGCAC was 686. In the case of TGCCTGAAGCCCGCCAGGCACAGGACCCGCAGGGGT it was 676; in that of GGGGACGCCCCTCCGCGCTGCGGCGGTGGTCGGGAG, 609; in that of TTGAATTTACCACGCGGAAAGCAGCTTTTCATGTGC, 698.

The sequence CCCTAGCCGCAGCCCAAGATCCTCCCACGGGGAGTG gave an RUNX1 binding intensity of 1630.

Take TCCAGCTGAAGGGGGCATCTTTGCGGCAGAGGCAGC: the RUNX1 binding intensity amounted to 755. The value for GCCCTTGCTCCCGGCGCGCAGGGTGTGGTCCCCGAG was 747. TGCTGATTCCTCTGCTGCCGAAGCGGTTTCTTCCAC gave an RUNX1 binding intensity of 1020. In the case of ACTGCTCAACCACACACAAGAACAGCAGCATGAGGT, the RUNX1 binding intensity turned out to be 1050. GGTGTGACAACCACAAACAGCTCCCTGCCAGAGTCC yielded an RUNX1 binding intensity of 1410. In the case of TTGCTCCCGTAAGCCCCGCCCGACCGCGGCTCCTGA it was 1020. As for CCCGCCGTAAGGACGCGTCTGCGTCTCTGCGGCGAG, the RUNX1 binding intensity is 654. Regarding AGGCCTCGCCTCCTCTCCTGACCACACCCTGCAGCT, the RUNX1 binding intensity came out at 1130. Turning to GTTTATGGCAGCAAAGCCTGATAACCCACAAACCCT, the RUNX1 binding intensity came to 852. In the case of AAGGAACTGTGGTAAGAGAAGGCAGTGGTAGCCACT, the RUNX1 binding intensity came to 904. In turn, GGCCAGGCAGCAAGTCCCGCGCCACAAGCGGCCGTC showed an RUNX1 binding intensity of 725.

In turn, CTGGAGCCCACAACAACTCCGGGCCGAAGCAGCAGG yielded an RUNX1 binding intensity of 801. In turn, TCCCACACCCTGTGCTCGTGCAGTGGTTAGGCTCAA returned an RUNX1 binding intensity of 660. With GGGTGCAGCTGGAAGGTTGAGGTCAGATCCTCCCAG, the RUNX1 binding intensity was determined as 752. Regarding CGGTGTGAGGTGTGGCTTTGTCTTCATGAGTGGTGT, the RUNX1 binding intensity is 897. With ACAGATCCAAGAAAGCATATCCCGCAAGCAACTGTT, the RUNX1 binding intensity stood at 800.

Consider GGGCTTCAGCGAATGAACAAGGTTACCACGGGGAGT, for which the RUNX1 binding intensity stood at 759.

In turn, GAGGACTTTCGGGTGGGTGTGATATCTGCGGGCCCG gave an RUNX1 binding intensity of 764. Sequence TCCCCTGTCTTACGGAGGCTGCGGCGCAGCGGCGCA had an RUNX1 binding intensity of 751.

TGCTGTGGGGACAGCCCAGGTGCATGAAGGGGCCAG showed an RUNX1 binding intensity of 686.

As for GGACGAGGCAGCCCCTGTATCACCCCACAAGAAGCC, the RUNX1 binding intensity turned out to be 871.

For GAGCGCGGCACTCGCCACGGTAAGGATTACCACAGG, the RUNX1 binding intensity was determined as 742.

Sequence AATATAGTGGTTCAAAACAAGAGGCAGTGTGGCAAG displayed an RUNX1 binding intensity of 817. The sequence AACAGCAAGTGGTCTTAGAGATCATGCGGTTCAGAG showed an RUNX1 binding intensity of 790. CCCGTGCACCGCAGCCTTACGGGGACGTGCTCAGGG showed an RUNX1 binding intensity of 987.

GATTAAGAGGAGGTGTGTGTGATTATTACCGCTGGA registered an RUNX1 binding intensity of 805.

GAGGGACACGATGCCGCCAGGAACCACAAGAGCTTC had an RUNX1 binding intensity of 750 ± 38. For the sequence CTGGCCCCTTCATGCACCTGGGCTGTCCCCACAGCA, the RUNX1 binding intensity came out at 924. CAGTGTTCCGCGTACGGGGGTTTGTGGGAGTTGCCT came in with an RUNX1 binding intensity of 872. In the case of CCTACAATTCCCAGAGAACCTAGCGGTTACGCCAAC it was 1220; in that of TGCGTCCATTCGGGGCTTCTGGCCGCAAGGCGCCAG, 743. As for GGGCTTACGGCTGAACCCATGGCTGCGGGCTGTGCT, the RUNX1 binding intensity was 704. For the sequence GTCTCTTGGTGGTTGATAAGCTAAACGGAGGTGAGT, the RUNX1 binding intensity was 1020. Sequence GGATGACACCCGGCACCAACTTAACCACTAATCTCA had an RUNX1 binding intensity of 1090. The value for AGTGCTGTGGGCGAGACTGCACAGCAAATAAAAAGA was 801; that for TCCTGCGGCTGAGTGGCAGCTTCCATTCGGTGGGTT was 883; that for TCTCGTCCAGTCCTTGCTCCCCCTCCCCGCAGCGCT was 1330. CGGCGGCTGCGGGCTGAGCGGCGAGTTGCCGATTTA came in with an RUNX1 binding intensity of 802. In the case of CTTTTTTGTGGCTTACCAGAACCAATATTCGGCATT it was 1450. On to GTGGGGGGCGGGTGGTTGGGGCGTCAGGTTCGCCGC, for which the RUNX1 binding intensity worked out at 830.

For the origin of these results see the supplement of paper PMC10681739.
